Measurements from PubChem BioAssay AID894 (National Center for Advancing Translational Sciences (NCATS), 2007).
Where “and” joins values, the source holds several entries; their conditions need not be identical. Identical values can stand only once. Screen size: about 150,000 compounds; about 6,500 (4.3%) were called active. The inconclusive results got no clear call from the source; some entries with a clear call stand among them for comparison. Calls follow the shape of the dose curve; as a rule, active = well fitted inhibition curve with a large enough effect (not every such curve was filed as active); inconclusive = small, poorly fitted or top-dose-only effect, or another doubt; inactive = no such curve, though single readings can be large or run the other way. No potency is given beside an inconclusive call; the fits are too rough.

Target: 15-hydroxyprostaglandin dehydrogenase [NAD(+)] (Homo sapiens) (UniProt P15428)
UniProt P15428, sequence (P15428 whole entry, looked up): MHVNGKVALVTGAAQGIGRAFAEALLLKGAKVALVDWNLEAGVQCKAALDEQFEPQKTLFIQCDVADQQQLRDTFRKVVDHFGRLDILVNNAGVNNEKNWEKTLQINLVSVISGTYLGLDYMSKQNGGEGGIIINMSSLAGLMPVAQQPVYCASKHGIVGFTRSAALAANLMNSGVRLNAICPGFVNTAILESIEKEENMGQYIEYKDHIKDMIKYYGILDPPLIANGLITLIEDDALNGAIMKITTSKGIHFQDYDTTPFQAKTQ
Experiment: qHTS Assay for Inhibitors of HPGD (15-Hydroxyprostaglandin Dehydrogenase)
Conditions: purified HPGD, NADH fluorescence kinetic, PGE2 substrate; activity change, negative = inhibition: stronger effect = lower value
In short: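 NADH formation kinetics: reaction with 30 uM PGE2 and 1 mM NAD+ (final), 20 nM enzyme, Tris-HCl pH 8 with Tween 20, after 15 min compound preincubation at room temperature. Fluorescence change, last versus first of five reads.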
% is scaled to controls: 0 for no effect and ±100 for the full control effect; potency is read from the fitted curve at half-maximal effect; tags tell the direction and shape of the fitted curve.

Structure (SMILES)	activity change, negative = inhibition	Potency
CN1C(=O)N(C)C(=O)C2(Cc3ccccc3N3CCOCC32)C1=O (stereo not drawn)	inactive: -12.3%	–
CC(C)(C)OOC(=O)c1ccccc1	inactive: -8.76%	–
Oc1ccc(Cl)cc1CN1CCN(Cc2ccccc2)CC1	inactive: -0.0343%	–
CCCCc1ccc(C(=O)O)nc1	inactive: 0.948% and inactive: -9.64% and inactive: 6.52%	–
Oc1ccc(Cl)cc1Cc1ccccc1	–	active: 10 µM
N#C/C(=C\c1ccc(O)cc1)C(=O)O	–	inconclusive [inhibitor, single point]
CCOC(=O)Cc1c(C)c2c(C)[nH]nc2oc1=O	–	inconclusive [inhibitor, single point]
CC(C)(O)C(Cl)(Cl)Cl	inactive: -1.56%	–
Oc1cccc2cccnc12	inactive: 0.194% [middle of 4 runs]	–
COc1ccc2c(c1O)-c1cccc3c1C(C2)N(C)CC3 (stereo not drawn)	–	inconclusive [inhibitor, partial curve]
O=C1NC(=S)N(C2CC2)C(=O)/C1=C/c1ccc2c(c1)CCN2CCCCl	–	active: 11.2 µM
Nc1c(C(=O)NCCN2CCOCC2)c2nc3ccccc3nc2n1Cc1ccco1	–	inconclusive [inhibitor, partial curve]
CC(=NCCCO)c1c(O)n(Cc2ccccc2)c(=O)[nH]c1=O	–	inconclusive [inhibitor, partial curve]
COc1ccc(P2(=O)Nc3ccccc3N2)cc1	–	active: 25.1 µM
CCCC/C(C)=C/[C@@H](NP(=O)(c1ccccc1)c1ccccc1)c1ccccc1	–	inconclusive [inhibitor, partial curve]
CC(=O)C(Sc1ncnc2c1nnn2-c1ccc(F)cc1)C(=O)N(C)C (stereo not drawn)	–	active: 11.2 µM
Nc1nc(N)c2nc(CNc3ccc(C(=O)NC(CCC(=O)O)C(=O)O)cc3)cnc2n1 (stereo not drawn)	–	inconclusive [inhibitor, partial curve]
CC(C)(C)n1cccc1/C=C1\C(=O)NC(=O)N(c2ccccc2)C1=O	inactive: 1.56%	–
CC1(C)C(=O)C=C[C@@]2(C)C1=C(O)C(=O)[C@@]1(C)C2CC[C@@]2(C)C(c3ccoc3)C[C@H]3O[C@@]321 (stereo partly drawn)	inactive: 0.734%	–
Cc1cccc(C(=O)O)c1O	–	inconclusive [inhibitor, partial curve]
O=C(Cn1ncc2c3ccccc3n(Cc3ccc(F)cc3)c2c1=O)N1CCC2(CC1)OCCO2	–	inconclusive [inhibitor, partial curve]
COc1cc(/C=C2/C(=O)NC(=O)N(c3ccccc3)C2=O)ccc1O	–	inconclusive [inhibitor, single point]
CCC(=Nc1ccc(OC)cc1OC)c1c(O)[nH]c(=O)[nH]c1=O	–	active: 25.1 µM
Nc1ncc([N+](=O)[O-])s1	–	inconclusive [inhibitor, single point]
COc1ccc(-c2cc(=Nc3ccccc3)c3cc(C)ccc3o2)cc1	–	inconclusive [inhibitor, partial curve]

Structure (SMILES)	activity change, negative = inhibition	Potency
[O]=[Cr](=[O])([OH])[O][Cr](=[O])(=[O])[OH]	inactive: -8.03% and inactive: -3.31% and inactive: -8.1%	–
O=c1[nH]c(=S)n(Cc2ccc(F)cc2)c(O)c1C=NCc1cccnc1	–	inconclusive [inhibitor, partial curve]
CCCCn1c(NS(=O)(=O)c2ccc(C)cc2)c(C(=O)OCC)c2nc3ccccc3nc21	–	inconclusive [inhibitor, partial curve]
Fc1ccccc1CCNCc1cccc2ccccc12	–	inconclusive [inhibitor, single point]
Clc1cccc(Cl)c1	inactive: -10.3%	–
Clc1cccc(C(Cl)(Cl)Cl)n1	inactive: -1.64%	–
CCc1ccc(/C=C(/C#N)C(N)=S)cc1	–	active: 31.6 µM
O=C(NCc1ccccn1)c1ccccc1Cl	–	active: 6.31 µM
CC(=O)OC1C(=O)[C@]2(C)C(O)CC3OC[C@]3(OC(C)=O)C2[C@@H](OC(=O)c2ccccc2)[C@]2(O)CC(O)C(C)=C1C2(C)C (stereo partly drawn)	–	inconclusive [inhibitor, single point]
CCc1ccc2c(CN3CC=C(c4ccccc4)CC3)cc(=O)oc2c1	inactive: -13.5%	–
Cc1ccc(/C=C/C2=NN(Cc3ccc(Cl)c(Cl)c3)C(=O)CC2)cc1	–	inconclusive [inhibitor, partial curve]
c1ccc(CCN2CCC(N3CCN(c4ccccc4)CC3)CC2)cc1	inactive: 10.9%	–
O=C1NC(=O)N(c2ccc(Cl)cc2)C(=O)/C1=C\c1ccc(Sc2nc3ccccc3[nH]2)o1	–	active: 10 µM
CNC(=O)Oc1cccc(-c2cn3cc(Cl)ccc3n2)c1	–	inconclusive [inhibitor, partial curve]
O=C/C=C/c1ccccc1	inactive: -15.4% and inactive: -5.2% and inactive: -8.9%	–
CCN(CC)Cc1c[nH]c2ccccc12	–	inconclusive [inhibitor, partial curve]
COC(=O)N1CCC2(CCCN(C)C2)CC1	inactive: -4.37%	–
C[C@@]12CCC(=O)C[C@@H]1CC[C@@H]1[C@@H]2CC[C@]2(C)C(=O)CC[C@@H]12	inactive: 0.46%	–
CN1CC[C@@]2(CCCN(C(=O)c3ccncc3)C2)C1	inactive: -0.726%	–
CC(C)C[C@H]1C(=O)N2CCC[C@@H]2[C@@]2(O)O[C@](NC(=O)[C@@H]3C=C4c5cccc6[nH]cc(c56)C[C@@H]4N(C)C3)(C(C)C)C(=O)N12	–	inconclusive [inhibitor, partial curve, poor fit]
CC(C)C1C(=O)N2CCCC2[C@]2(O)O[C@@](NC(=O)[C@@H]3C=C4c5cccc6[nH]cc(c56)C[C@H]4N(C)C3)(C(C)C)C(=O)N12 (stereo partly drawn)	–	inconclusive [inhibitor, partial curve]
Cc1[nH]c2ccccc2c1/C=N/O	–	active: 12.6 µM
Cc1cc(OCC(=O)Nc2c(C)n(C)n(-c3ccccc3)c2=O)c2c3c(c(=O)oc2c1)CCC3	–	inconclusive [inhibitor, partial curve]
Cc1ccc(-c2nc3ccccc3c(=O)n2-c2nccs2)cc1	–	inconclusive [inhibitor, single point]
O=C(/C=C/c1ccccc1)NC(NC(=S)Nc1cccc2cccnc12)C(Cl)(Cl)Cl (stereo not drawn)	–	inconclusive [inhibitor, partial curve]

Structure (SMILES)	activity change, negative = inhibition	Potency
CC(C)CCn1c(N)c(C(=O)NCc2cccs2)c2nc3ccccc3nc21	–	inconclusive [inhibitor, single point]
C=CCN1C(=O)/C(=C/c2cc(C)n(-c3cccnc3)c2C)C(=O)NC1=S	–	active: 10 µM
O=S(=O)(Nc1ccc(-c2nc3ccccc3o2)cc1)c1ccccc1	–	inconclusive [inhibitor, partial curve]
O=C(N/N=C/c1c(O)n(Cc2ccccc2)c(=O)[nH]c1=O)c1ccccc1O	–	inconclusive [inhibitor, partial curve]
O=C(CN1CCCCC1c1cccnc1)c1ccccc1 (stereo not drawn)	–	inconclusive [inhibitor, partial curve]
COC(=O)c1c(C)ccc2c(O)c3c(cc12)C(=O)c1c2c(cc(O)c1C3=O)[C@@]1(C)O[C@@](C)(O2)[C@@H](O)[C@H](N(C)C)[C@H]1O	–	inconclusive [inhibitor, partial curve]
Oc1cc(O)c2c(c1)OC(c1cc(O)c(O)c(O)c1)C(O)C2 (stereo not drawn)	–	active: 15.8 µM
O=[N+]([O-])c1ccc(Cl)cc1	inactive: -3.71%	–
O=P(Nc1cccnc1)(Oc1ccccc1)Oc1ccccc1	inactive: -11.2%	–
CCCOP(=O)(OCCC)c1nc(-c2ccccc2)oc1NCc1ccccc1	–	inconclusive [inhibitor, partial curve]
CN(C)c1ccc(/C=C2/C(=O)NC(=O)N(CCc3ccc(F)cc3)C2=O)cc1	–	active: 10 µM
CC(=O)c1ccc(OC(NC(=O)Cc2ccccc2)C(Cl)(Cl)Cl)cc1 (stereo not drawn)	–	active: 12.6 µM
Cc1cc(OCc2nn[nH]n2)c2c3c(c(=O)oc2c1)CCC3	–	inconclusive [inhibitor, partial curve]
CC(C)OC(=O)Nc1cccc(Cl)c1	–	active: 12.6 µM
Cc1ccc2nsnc2c1-n1c(C)nc2ccccc2c1=O	inactive: -13.6%	–
O=Cc1ccccc1	inactive: -8.57%	–
COP(=S)(OC)Oc1ccc([N+](=O)[O-])cc1	inactive: -5.91% and inactive: -6.34%	–
Cc1nn(Cc2ccccc2)c(C)c1C=C1C(=O)NC(=S)NC1=O	–	inconclusive [inhibitor, partial curve, poor fit]
Cc1cc(OCC(=O)OC(C)(C)C)c2c3c(c(=O)oc2c1)CCC3	–	inconclusive [inhibitor, partial curve]
O=C1NC(=O)c2c1c1c3ccccc3[nH]c1c1[nH]c3ccccc3c21	inactive: -14.2%	–
CN1CCN(c2ccc(/C=C3\C(=O)NC(=S)N(c4cccc(Br)c4)C3=O)o2)CC1	inactive: -9.9%	–
O=C(c1cc2c(s1)-c1ccccc1OC2)N1CCC2(CC1)OCCO2	–	inconclusive [inhibitor, partial curve]
Cc1ccc(N2C(=O)NC(=O)/C(=C\c3ccsc3)C2=O)cc1C	–	active: 31.6 µM
